Laboratory results taken from patent US20210127671A1, “HYPERSENSITIVE RESPONSE ELICITOR PEPTIDES AND USE THEREOF” (priority 2015, published 2021).
At least one peptide structure holds a part that was inferred or is arguable (an end, a ring closure or a residue). Marks after values point to notes of the source that are not given here. Some entries repeat one wording, which the source may state once for all of them. Some results were stated once for a whole list of compounds, not compound by compound. Peptide text beside a SMILES is read from it.

Experiments:
Corn [1] = test: Growth test, foliar spray, corn; format: in vivo; settings: for Growth (% difference) / Fresh mass (% difference): % increase over water-treated control; for Fresh mass (% difference): Rate 0.2, after 2-4 days without watering
soy [2] = test: Peptide seed treatment, root and shoot growth, soy; format: in vivo, soybean; settings: 12-14 days; for Root (%): root growth index; for Shoot (%): shoot length
[3] = 50° C., 50 mM TES, pH 8.0 and 30% isopropanol
[4] = test system: tobacco mosaic virus (TMV); test: Induced resistance of tobacco to infection with tobacco mosaic virus; settings: % decline in TMV lesions vs UTC; for Effectiveness Covered (%): covered leaves (systemic response); for Effectiveness Uncovered (%): uncovered leaves (local response)
Corn [5] = test: Peptide seed treatment, root and shoot growth, corn; format: in vivo; settings: 12-14 days; for Root (%): root growth index; for Shoot (%): shoot length
[6] = test system: Nicotiana tabacum cultivar xanthi plants; settings: result in words; HR test of Example 1
Soy [7] = test: Growth test, foliar spray, soy; format: in vivo; settings: for Growth (% difference): Rate 0.2, 14 days, % increase over water-treated control; for Dry biomass (% difference): Rate 0.2, % increase over water-treated control
Method: For growth tests, corn and soy seeds were planted in flats with 2 seeds per cell within the flat at a greenhouse facility. The seeds were allowed to germinate and the smaller plant is culled, leaving one plant per cell. Once the first true leaves are fully expanded and the second leaves are beginning to expand, the plants were initially measured for height. This was performed by stretching the highest leaf upward and measuring the distance to the soil. Peptides were dissolved in water at the indicated concentrations (below). The plants were then treated with a foliar spray using widely available spray bottles until liquid was dripping from the leaves. 4 flats of 14 plants each were treated per condition (peptide or control). Corn and soy were treated as indicated in Table 13 and compared with matched water-treated control plants. The plants were allowed to grow for 14 days. The height of the plants was again measured and compared to the original height to quantify growth. In some cases, the plants were allowed to grow without watering for 2-4 days until the onset of wilting and drought stress. At this time, the above-ground portions of the plants were harvested and weighed to determine the fresh mass. Finally, the above-ground material was dried at 70° C. for 48 hours and weighed to determine dry biomass. Growth, dry biomass, and fresh mass are calculated as the % increase over the water-treated control.

[8] = Stability against chemical degradation in water or pH buffers at 50° C. (HPLC)
Method: Briefly, the stability and resistance to chemical degradation of peptides can be assessed as follows using peptide samples having an initial purity of at least about 80%, at least about 82%, at least about 84%, at least about 86%, at least about 88%, at least about 90%, at least about 92%, at least about 94%, at least about 96%, or at least about 98%. For water stability, the peptide is dissolved directly in de-ionized water. For chemical degradation tests, the peptide is dissolved in an aqueous solution containing 50 mM pH buffer and 0.25% Proxel GXL. Exemplary pH buffers include, without limitation: (i) Citrate pH 5.6; (ii) MES pH 6.2; (iii) MOPS pH 6.5; (iv) imidazole pH 7.0; (v) Citrate pH 7.2; (vi) EDDS, pH 7.3; (vii) EDTA pH 8.0; (viii) sodium phosphate pH 8.0; or (ix) TES pH 8.0. Peptides are first dissolved in the aqueous solution at a concentration of 0.5 mg/ml. […] An initial sample of the peptide is removed, diluted 10× with water, and analyzed by reverse-phase HPLC. Briefly, 20 μl of the sample is injected into the solvent flow of an HPLC instrument and analyzed on a C18 HPLC column (YMC ProPack C18, YMC, Japan, or C18 Stablebond, Agilent Technologies, USA) using either a triethylamine phosphate in water/acetonitrile gradient or a 0.1% TFA in water/0.1% TFA in acetonitrile gradient to separate different peptide species. Eluting peptides are monitored by UV absorbance at 218 nm and quantified based on the area under the peak. The area under the peak for the initial peptide sample is treated as the standard for relative quantification in subsequent runs. At regular intervals (e.g., 1, 3, 7, 10, 14, 17, and 21 days), each peptide sample is surveyed and analyzed by HPLC as described above.
Stability against chemical degradation was assessed in various pH buffers by creating 0.2% AI solutions of pure, chemically synthesized peptide in deionized water, 0.25% weight to volume of Proxel® GXL (biocide), and 50 millimolar (mM) of eight buffers (separately) as follows: MES pH 5.6, MOPS pH 6.5, Citrate pH 7.2, EDDS pH 7.3, EDTA pH 8, Phosphate pH 8, Imidazole pH 8, and TES pH 8.

[9] = Rate 0.2, % increase over water-treated control

SMILES | Growth (% difference) (Corn [1]; Rate 0.2, 14 days) | Dry biomass (% difference) (Corn [1]; [9]) | Fresh mass (% difference) (Corn [1]) | Effectiveness Covered (%) ([4]; 10 ug/ml spray) | Effectiveness Uncovered (%) ([4]; 10 ug/ml spray) | elicitation of hypersensitive response (HR) in tobacco leaves [6] | Growth (% difference) (Soy [7]) | Dry biomass (% difference) (Soy [7]) | Effectiveness Covered (%) ([4]; 5 ug/ml spray) | Effectiveness Uncovered (%) ([4]; 5 ug/ml spray) | also measured
CC[C@H](C)[C@H](NC(=O)[C@H](CC(N)=O)NC(=O)[C@H](CO)NC(=O)[C@H](CCC(N)=O)NC(=O)[C@H](CO)NC(=O)[C@H](CC(=O)O)NC(=O)[C@H](CC(N)=O)NC(=O)[C@@H]1CCCN1C(=O)[C@@H](N)CCCCN)C(=O)N[C@@H](C)C(=O)N[C@@H](CCCCN)C(=O)N[C@@H](CC(C)C)C(=O)N[C@H](C(=O)N[C@@H](CO)C(=O)N[C@@H](C)C(=O)N[C@@H](CC(C)C)C(=O)N[C@H](C(=O)N[C@@H](CCSC)C(=O)N[C@@H](CO)C(=O)N[C@@H](CC(C)C)C(=O)N[C@@H](CC(C)C)C(=O)N[C@@H](CCC(N)=O)C(=O)O)[C@@H](C)CC)[C@@H](C)CC [Peptide P15b] (H-KPNDSQSNIAKLISALIMSLLQ-OH; N-terminus and C-terminus assumed) | 0.9 | 2.0 | 13.9 | – | – | – | – | – | – | – | Root (%) (soy [2]; seed soak 5.0 μg/ml): 34* %; Shoot (%) (soy [2]; seed soak 5.0 μg/ml): 15.6* %
CC(C)C[C@H](NC(=O)[C@H](C)NC(=O)[C@H](CCC(N)=O)NC(=O)[C@H](C)NC(=O)[C@@H]1CCCN1C(=O)[C@H](CC(=O)O)NC(=O)[C@@H](N)CCC(N)=O)C(=O)N[C@@H](CC(C)C)C(=O)N[C@@H](CCC(N)=O)C(=O)N[C@@H](CC(C)C)C(=O)N[C@@H](CC(C)C)C(=O)N[C@@H](CCC(=O)O)C(=O)N[C@@H](CC(=O)O)C(=O)N[C@@H](CC(C)C)C(=O)N[C@H](C(=O)N[C@@H](CCCCN)C(=O)N[C@@H](CC(C)C)C(=O)N[C@@H](CC(C)C)C(=O)N[C@@H](CCCCN)C(=O)O)C(C)C [Peptide P14e] (H-QDPAQALLQLLEDLVKLLK-OH; N-terminus and C-terminus assumed) | – | – | – | 79* % | 90% | – | – | – | – | – | chemical stability for >50 days [3]: > 85%
CC[C@H](C)[C@H](NC(=O)[C@H](CC(C)C)NC(=O)[C@H](CCC(=O)O)NC(=O)[C@H](CCC(=O)O)NC(=O)[C@H](CC(C)C)NC(=O)[C@H](CC(C)C)NC(=O)[C@H](CCC(=O)O)NC(=O)[C@H](CCC(=O)O)NC(=O)[C@@H](N)CC(C)C)C(=O)N[C@@H](CCC(=O)O)C(=O)N[C@@H](CCC(=O)O)C(=O)N[C@@H](CC(C)C)C(=O)N[C@@H](CC(C)C)C(=O)N[C@@H](CCC(=O)O)C(=O)N[C@@H](CCC(=O)O)C(=O)O [Peptide P30-3] (H-LEELLEELIEELLEE-OH; N-terminus and C-terminus assumed) | 8.7 | 8.0 | 13.4 | 95* % | 95* % | produced an HR response | – | – | – | – | Root (%) (Corn [5]; seed soak 0.2 μg/ml): 15.4* %; Shoot (%) (Corn [5]; seed soak 0.2 μg/ml): −0.7%; Root (%) (soy [2]; seed soak 0.2 μg/ml): 4.2%; Shoot (%) (soy [2]; seed soak 0.2 μg/ml): 8.8* %; Root (%) (soy [2]; seed soak 2.0 μg/ml): −17.9* %; Shoot (%) (soy [2]; seed soak 2.0 μg/ml): 11.4* %
CC[C@H](C)[C@H](NC(=O)[C@H](CCCCN)NC(=O)[C@H](CCSC)NC(=O)[C@H](CC(C)C)NC(=O)[C@H](CCCCN)NC(=O)[C@H](CCC(N)=O)NC(=O)[C@H](CC(C)C)NC(=O)[C@@H](NC(=O)CNC(=O)[C@@H](NC(=O)[C@H](CC(C)C)NC(=O)[C@@H](NC(=O)[C@H](CC(C)C)NC(=O)CNC(=O)CN)[C@@H](C)O)[C@@H](C)O)C(C)C)C(=O)N[C@@H](CC(C)C)C(=O)N[C@@H](CC(N)=O)C(=O)N[C@@H](C)C(=O)N[C@@H](CC(C)C)C(=O)O [Peptide P25] (H-GGLTLTGVLQKLMKILNAL-OH; N-terminus and C-terminus assumed) | – | – | – | – | – | – | 10.0 | 2.0 | – | – | Growth (% difference) (Corn [1]; Rate 5.0, 14 days): 7.0 % difference; Dry biomass (% difference) (Corn [1]; Rate 5.0, % increase over water-treated control): 11.0 % difference; Effectiveness Covered (%) ([4]; 20 ug/ml spray): 94* %; Effectiveness Uncovered (%) ([4]; 20 ug/ml spray): 94* %
CC[C@H](C)[C@H](NC(=O)[C@@H](NC(=O)[C@H](CCC(N)=O)NC(=O)[C@H](CCCNC(=N)N)NC(=O)[C@H](CC(=O)O)NC(=O)[C@@H](NC(=O)[C@@H]1CCCN1C(=O)[C@H](CCC(N)=O)NC(=O)[C@@H](N)CCC(N)=O)[C@@H](C)CC)[C@@H](C)O)C(=O)N[C@@H](CCC(=O)O)C(=O)N[C@@H](CCC(N)=O)C(=O)N[C@@H](CCSC)C(=O)N[C@@H](C)C(=O)N[C@@H](CCC(N)=O)C(=O)N[C@@H](CC(C)C)C(=O)N[C@@H](CC(C)C)C(=O)N[C@@H](C)C(=O)N[C@@H](CCC(N)=O)C(=O)N[C@@H](CC(C)C)C(=O)N[C@@H](CC(C)C)C(=O)N[C@@H](CCCCN)C(=O)N[C@@H](CO)C(=O)N[C@@H](CC(C)C)C(=O)N[C@@H](CC(C)C)C(=O)N[C@@H](CO)C(=O)N1CCC[C@H]1C(=O)N[C@@H](CCC(N)=O)C(=O)O [Peptide P18] (H-QQPIDRQTIEQMAQLLAQLLKSLLSPQ-OH; N-terminus and C-terminus assumed) | 15.0 | 9.0 | – | – | – | – | 18.0 | 15.0 | 80* % | 63* % | % of original concentration after 7 days ([8]; 50 mM EDTA solution, 50° C.): 35%; % of original concentration in 3 days ([8]; most samples, aqueous buffer solutions, 50° C.): 20%; Root (%) (Corn [5]; seed soak 2.0 μg/ml): 7.7%; Shoot (%) (Corn [5]; seed soak 2.0 μg/ml): −2.0%
CC[C@H](C)[C@H](N)C(=O)N[C@H](C(=O)N1CCC[C@H]1C(=O)N[C@@H](CC(=O)O)C(=O)NCC(=O)N[C@@H](CCC(N)=O)C(=O)NCC(=O)NCC(=O)NCC(=O)N[C@@H](CCC(N)=O)C(=O)N[C@H](C(=O)NCC(=O)N[C@@H](CC(=O)O)C(=O)N[C@@H](CC(N)=O)C(=O)N1CCC[C@H]1C(=O)N[C@@H](CC(C)C)C(=O)N[C@@H](CC(C)C)C(=O)N[C@@H](CCCCN)C(=O)N[C@@H](C)C(=O)N[C@@H](CCSC)C(=O)N[C@@H](CC(C)C)C(=O)N[C@@H](CCCCN)C(=O)N[C@@H](CC(C)C)C(=O)N[C@H](C(=O)N[C@@H](C)C(=O)O)[C@@H](C)CC)[C@@H](C)CC)[C@@H](C)O [Peptide P19] (H-ITPDGQGGGQIGDNPLLKAMLKLIA-OH; N-terminus and C-terminus assumed) | – | – | – | – | – | exhibit HR | 18.0 | 12.6 | 90* % | 79* % | % peptide retained for 14 days ([8]; buffers at lower pH (5.5-7.0)): > 80%
